The text below walks through data of PubChem BioAssay AID1963862 (Molecular Pharmacology Branch, DTP, NCI, 2024).

Not every entry of the source has a single result; some have several. Only these are listed. The source may hold further records. Values that stand side by side repeat one measurement (runs, samples, wells, individuals or studies). Signs of the kind (2×) say how often a value occurs here. Dates in brackets are months of testing.

For this experiment, the system named is KRAS patient-derived spheroids with HUVEC/MSC, viability. Kind of experiment: Anticancer human tumor 941728-121-R-J1-PDC patient-derived lung adenocarcinoma cell line growth inhibition [KRAS2]. As to conditions: for viability, T/C: stronger effect = lower value; for IC50: compound alone. An excerpt:
Multicellular complex tumor spheroid response to RAS pathway inhibitors in combination with a targeted agents in patient-derived cell lines with oncogenic KRAS variants from multiple cancer types
A high-throughput screen of multi-cell type tumor spheroids was designed to identify active combinations of targeted small molecules and KRAS pathway inhibitors. Complex spheroids include a stromal component modeled by human endothelial cells (HUVEC) and fibroblasts modeled by human mesenchymal stem cells (MSCs). The concentration ranges selected for each drug and investigational agent were based upon clinically achievable concentrations if the clinical Cmax of the agent was known.
Compounds. The drugs and investigational agents: BI-3406 (NSC825286), BAY-293 (NSC824723), batoprotafib (TNO155; NSC825523), sotorasib (AMG 510; NSC818433), MRTX1257 (NSC819558), elimusertib (BAY 1895344; NSC800525), molibresib (GSK525762; NSC774829), temuterkib (LY3214996; NSC803410), venetoclax (NSC766270), alisertib (NSC759677), olaparib (NSC753686), talazoparib (NSC767125), erdafitinib (NSC781556), ipatasertib (NSC767898), cabozantinib (NSC761068), nintedanib (NSC756659), abemaciclib (NSC768073), docetaxel (NSC628503), trametinib (NSC758246), and sapanisertib (NSC764658) were obtained from the National Cancer Institute (NCI) Developmental Therapeutics Program Chemical Repository. The FDA-approved anticancer drug set is available from the Developmental Therapeutics Program. […] The stock solutions were prepared in dimethyl sulfoxide (DMSO, Sigma-Aldrich, St. Louis, MO, cat. D2650) at 800-fold the tested concentration and stored at -70 degrees C prior to their use. All drugs and investigational agents were tested over a range starting from a high concentration at or near the clinical Cmax and decreasing in half-log increments. If the clinical Cmax for an agent had not been determined, the highest concentration tested was 10 microM.
Cell Culture. All cells were maintained in an incubator at 37 degrees C and 5% CO2 with 95% humidity. The PDC lines were cultured according to standard operating procedures established by the NCI PDMR (https://pdmr.cancer.gov/sops/default.htm). Briefly, all PDCs were thawed and cultured in Matrigel-coated flasks prepared with a working solution of 1X Ham's F-12 nutrient mix, without supplementation (Invitrogen, Waltham, MA, cat. 11765054), 100 U/mL penicillin-streptomycin (Invitrogen, cat. 15140122), and 2.5% Matrigel (Corning Inc., Corning, NY, cat. 354248) for the first three passages. All PDCs were cultured in complete DMEM/F-12 media containing advanced DMEM/F-12 (Invitrogen, cat. 12634028), 4.9% defined fetal bovine serum, heat inactivated (HyClone Laboratories Inc., Logan, UT, cat. SH30070.03HI), 389 ng/mL hydrocortisone (Sigma-Aldrich, cat. H4001), 9.7 ng/mL human EGF recombinant protein (Invitrogen, cat. PHG0313), 23.4 microg/mL adenine (Sigma-Aldrich, cat. A2786), 97.3 U/mL penicillin-streptomycin (Invitrogen, cat. 15140122), 1.9 mM L-glutamine (Invitrogen, cat. 25030081), and 9.7 microM Y-27632 dihydrochloride (Tocris Bioscience, Bristol, United Kingdom, cat. 1254). The PDCs were cultured in complete DMEM/F12 media without 9.7 microM Y-27632 dihydrochloride for at least two passages prior to the screen. The established cell line HOP-62 was cultured in RPMI 1640 medium, HEPES (Invitrogen, cat. 22400105) with 10% defined fetal bovine serum (HyClone Laboratories Inc., cat. SH30070.03) and 2 mM L-glutamine (Invitrogen, cat. 25030081). The pooled donor HUVEC were cultured in endothelial cell growth medium 2 (PromoCell, Heidelberg, Germany, cat. C-22011) and the hMSC were cultured in mesenchymal stem cell growth medium 2 (PromoCell, cat. C-28009). For all experiments, HUVEC and hMSC were used at passages </=5, while the malignant cell lines were used at passages </=15. […]
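Note: spheroids exposed to agents for seven days before readout.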

On to `COc1cc2nccc(Oc3ccc(NC(=O)C4(C(=O)Nc5ccc(F)cc5)CC4)cc3)c2cc1OC`, for which the viability, T/C runs as follows: (compound alone 0.1 µM) 88.6, 86.1, 78.3, 106, 93.2%; (compound alone 1 µM) 64, 68.1, 86.3, 47.7, 76.5%; (compound alone 3.16 µM) 37, 35.4, 40.1, 103, 46.5%; (compound alone 10 µM) 74.4, 71, 71.8, 122%.

In the case of `CNCc1ccccc1-c1csc(C(C)Nc2nc(C)nc3cc(OC)c(OC)cc23)c1` (configuration not stated), the viability, T/C runs as follows: (compound alone 0.1 µM) 51.7 (2×), 56.1, 57.1, 59.3, 61.8, 59.9, 50.5, 52.7, 63.3, 61.5, 67, 63.9, 69.5, 77.8, 72.4, 76.2%; (compound alone 0.316 µM) 40.1, 31.2, 43.5, 50.5, 51.9, 44.3, 28.9, 38.3, 35.4, 38.1, 44.8, 49.2, 40.3, 60.5, 61.4, 60.2, 56.3%; (compound alone 1 µM) 44.3, 49.6, 39.8, 43.9, 34.3, 31.8, 18, 23, 27, 20.3, 26.9, 25.6, 32, 53.1, 36.7, 39.9, 48.1%; (compound alone 3.16 µM) 37, 25.8, 0.85, 0.56, 0.45, 0.35, 0.11, 0.42, 0.2, 0.24, 0.18, 1.99, 1.52, 7.57, 1.71, 5.19, 10.3%. Further, the IC50 reads like this: (run of 07/12/2021) 426 nM and < 100 nM, 326 nM, 424 nM, 285 nM [2021-07]; (run of 07/26/2021) 325 nM, 226 nM, 1.07 µM, 542 nM, 578 nM, 643 nM.

For the compound `CC1OCC2(CCN(c3cnc(Sc4ccnc(N)c4Cl)c(N)n3)CC2)C1N` (configuration not stated), the viability, T/C by setting is: (compound alone 1 µM) 99.6, 90.2, 30.2 (2×), 33.2, 39.9, 24.1, 32.3, 32.4, 34.1, 31.2, 48.8, 37.8 (2×), 47.5, 30.3, 34.8, 31.5, 42.4%; (compound alone 10 µM) 36.4, 65.7, 30.9, 27.6, 24.3, 19.4, 20.9, 14.1, 24.4, 20.4, 20.7, 38.2, 35.5, 41.7, 25.5, 23.4, 29.4, 24.2, 31.8, 39.7%. Further, the 50% inhibitory concentration (IC50) is reported as 1.73 µM, < 100 nM, 137 nM, 232 nM (run of 07/12/2021) and 101 nM, < 100 nM, 121 nM, 103 nM (run of 07/26/2021).

As to `CC(=O)OC12COC1CC(O)C1(C)C(=O)C(O)C3=C(C)C(OC(=O)C(O)C(NC(=O)OC(C)(C)C)c4ccccc4)CC(O)(C(OC(=O)c4ccccc4)C21)C3(C)C` (configuration not stated), the IC50 is < 10 nM and > 3.16 µM.

Regarding `CC(C)NCC(C(=O)N1CCN(c2ncnc3c2C(C)CC3O)CC1)c1ccc(Cl)cc1` (configuration not stated), the viability, T/C (compound alone 3.16 µM) is recorded as 32.6, 43.4, 42.3, 17.5, 36.1%.

Turning to `COc1cc(Nc2ncc3c(n2)-c2ccc(Cl)cc2C(c2c(F)cccc2OC)=NC3)ccc1C(=O)O`, the IC50 is recorded as < 31.6 nM, 6.08 µM, > 10 µM. For the same compound, the viability, T/C (compound alone 0.0316 µM) was 50.9, 87, 70.4, 96.9, 109%. Further, the viability, T/C (compound alone 0.1 µM) is reported as 42.4, 62, 68.6, 75.5, 72.5%. For the same compound, the viability, T/C (compound alone 0.316 µM) is 56.1, 64.1, 63, 71, 85.9%.

Consider `CC1(C)CCC(CN2CCN(c3ccc(C(=O)NS(=O)(=O)c4ccc(NCC5CCOCC5)c([N+](=O)[O-])c4)c(Oc4cnc5[nH]ccc5c4)c3)CC2)=C(c2ccc(Cl)cc2)C1`, for which the viability, T/C by setting is: (compound alone 0.0316 µM) 105, 96.8, 68.1, 76.1, 83.7%; (compound alone 0.1 µM) 84.1, 119, 71.8, 76.1, 84.4%; (compound alone 0.316 µM) 71, 105, 69.8, 61.5, 74.3%.

Regarding `COC(=O)c1ccc2c(C(=Nc3ccc(N(C)C(=O)CN4CCN(C)CC4)cc3)c3ccccc3)c(O)[nH]c2c1`, the viability, T/C (compound alone 0.0316 µM) was 79.2, 82.9, 106, 80.2, 83% and the viability, T/C (compound alone 0.316 µM) is recorded as 69.5, 50.1, 94.6, 65.4, 60%.

As for `COc1cc2nc(C)nc(NC(C)c3cc(N)cc(C(F)(F)F)c3)c2cc1OC1CCOC1` (configuration not stated), the viability, T/C reads like this: (compound alone 0.1 µM) 59, 63.1, 58.9, 109, 55.5, 61.1, 38.2, 39.5, 39.8, 53.6, 56.1, 54.5, 46, 51.3, 60.2, 67.8, 65.9%; (compound alone 0.316 µM) 55.6, 41.4, 49.9, 46.1, 57.1, 46.9, 35.4, 44.2, 33.7, 54.5, 46.7, 43.6, 52.7, 70.1, 73, 60.7, 55.2%; (compound alone 1 µM) 85.5, 58, 72.3, 38.7, 48.8, 43.6, 32.9, 34.9, 39.6, 40.7, 38.3, 29.7, 39.5, 63.2, 58.6, 50.7, 54.6%; (compound alone 3.16 µM) 43.8, 20.7, 40.8 (2×), 51.3, 38.7, 33.6, 34.1, 33.4, 33.5, 34.2, 24.1, 37, 56.9, 36.2, 50.4, 49.3%; (compound alone 10 µM) 47.5, 17.7, 67.1, 25.8, 15.4, 11.6 (2×), 11.3, 25, 13.4, 19, 19.2, 23.4, 36.5, 15.3, 44.8, 30.6%. Moreover, the IC50 (run of 07/12/2021) is reported as 6.36 µM, 1.15 µM, > 10 µM, 1.3 µM, 1.01 µM, 341 nM and the IC50 (run of 07/26/2021) is recorded as 153 nM, 143 nM, 4.82 µM, 1.62 µM, 2.12 µM, 2.09 µM.
